# Assay results: PubChem BioAssay (Tox21)
# Values joined by “and” are separate entries in the source; they are usually repeats but may differ in a detail not shown here. Identical values can stand only once. More than one record can exist for a structure, and the calls need not agree. Active and inactive are the calls of the source. Unless noted, the call rests on the fitted dose curve; in most records, active means well fitted curve in the direction sought with a large enough effect in the repeat runs; inconclusive means weak or mixed curves; inactive means no such curve, though single readings can be large; an effect the other way counts as inactive or inconclusive.
# Columns and labels:
# [1] = target: Androgen receptor (Homo sapiens) (UniProt P10275); assay: qHTS assay to identify small molecule antagonists of the androgen receptor (AR) signaling pathway (AID 743035; active means well fitted inhibition curve with a large enough effect in the signal ratio in the repeat runs, not every such curve was filed as active; inconclusive means weak or mixed curves, or effect the other way; inactive means no such curve, though single readings can be large or run the other way; the % refers to the signal ratio; further: potency means the concentration at half of the fitted maximal effect; on activity change, negative = inhibition: on the % scale 0 is the no-effect control and ±100 the full control effect); conditions: HEK293 AR-UAS-bla, R1881-stimulated, beta-lactamase FRET, 16 h; activity change, negative = inhibition: at 58.5 µM (top of the series) unless noted
# Chain of UniProt P10275 (P10275 whole entry, looked up): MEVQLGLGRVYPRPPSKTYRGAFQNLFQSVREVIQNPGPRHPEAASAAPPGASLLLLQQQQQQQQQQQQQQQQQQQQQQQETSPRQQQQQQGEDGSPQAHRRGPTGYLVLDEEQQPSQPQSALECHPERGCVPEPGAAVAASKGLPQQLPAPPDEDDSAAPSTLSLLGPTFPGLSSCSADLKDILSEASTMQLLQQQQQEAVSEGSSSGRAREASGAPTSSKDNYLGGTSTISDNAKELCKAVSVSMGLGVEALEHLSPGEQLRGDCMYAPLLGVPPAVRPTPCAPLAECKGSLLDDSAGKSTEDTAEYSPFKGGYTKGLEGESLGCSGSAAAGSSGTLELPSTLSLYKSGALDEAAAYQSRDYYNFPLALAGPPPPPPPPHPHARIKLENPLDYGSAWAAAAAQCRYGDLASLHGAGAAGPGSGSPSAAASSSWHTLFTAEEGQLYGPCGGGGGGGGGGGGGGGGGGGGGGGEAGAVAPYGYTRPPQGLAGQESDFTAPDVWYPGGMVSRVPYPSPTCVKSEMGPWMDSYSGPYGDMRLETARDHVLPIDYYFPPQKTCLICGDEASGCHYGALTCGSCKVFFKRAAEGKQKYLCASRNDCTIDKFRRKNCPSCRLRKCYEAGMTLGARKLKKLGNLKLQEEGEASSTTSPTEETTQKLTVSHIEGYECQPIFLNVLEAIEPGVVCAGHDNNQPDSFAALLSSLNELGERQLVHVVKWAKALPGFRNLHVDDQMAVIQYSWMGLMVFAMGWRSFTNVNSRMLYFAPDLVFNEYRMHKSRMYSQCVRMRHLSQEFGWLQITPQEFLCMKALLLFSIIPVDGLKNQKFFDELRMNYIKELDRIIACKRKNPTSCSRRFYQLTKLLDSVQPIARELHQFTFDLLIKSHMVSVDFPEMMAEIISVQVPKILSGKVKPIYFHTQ
# How it was run: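 HEK293 cells stably carrying UAS-beta-lactamase reporter, 2,000/well, given compounds plus R1881 agonist and incubated 16 h at 37C. LiveBLAzer B/G FRET substrate then added for 2 h at room temperature before fluorescence reading.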
# [2] = qHTS assay to identify small molecule antagonists of the thyroid receptor (TR) signaling pathway (AID 743065); further: nearly all actives have a fitted effect of over 55% in size; further: potency means the concentration at half of the fitted maximal effect
# How it was run: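 GH3.TRE-Luc rat pituitary cells (two TREs driving luciferase) were dosed with compound, then stimulated with 1 nM T3 (final) for 23.5 h at 37 C. ONE-Glo luminescence was the read-out, with CellTiter-Fluor fluorescence as the cytotoxicity counter-screen.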
# [3] = target: Estrogen receptor (Homo sapiens) (UniProt P03372); assay: qHTS assay to identify small molecule antagonists of the estrogen receptor alpha (ER-alpha) signaling pathway (AID 743069; active means well fitted curve in the direction sought with a large enough effect in the signal ratio in the repeat runs, not every such curve was filed as active; inconclusive means weak or mixed curves, or effect the other way; inactive means no such curve, though single readings can be large or run the other way; the % refers to the signal ratio; further: potency means the concentration at half of the fitted maximal effect; on activity, negative = inhibition: on the % scale 0 is the no-effect control and ±100 the full control effect); conditions: HEK293 ER-alpha-UAS-bla, beta-lactamase ratio, antagonist mode; activity, negative = inhibition: at 69.4 µM (top of the series) unless noted
# Chain of UniProt P03372 (P03372 whole entry, looked up): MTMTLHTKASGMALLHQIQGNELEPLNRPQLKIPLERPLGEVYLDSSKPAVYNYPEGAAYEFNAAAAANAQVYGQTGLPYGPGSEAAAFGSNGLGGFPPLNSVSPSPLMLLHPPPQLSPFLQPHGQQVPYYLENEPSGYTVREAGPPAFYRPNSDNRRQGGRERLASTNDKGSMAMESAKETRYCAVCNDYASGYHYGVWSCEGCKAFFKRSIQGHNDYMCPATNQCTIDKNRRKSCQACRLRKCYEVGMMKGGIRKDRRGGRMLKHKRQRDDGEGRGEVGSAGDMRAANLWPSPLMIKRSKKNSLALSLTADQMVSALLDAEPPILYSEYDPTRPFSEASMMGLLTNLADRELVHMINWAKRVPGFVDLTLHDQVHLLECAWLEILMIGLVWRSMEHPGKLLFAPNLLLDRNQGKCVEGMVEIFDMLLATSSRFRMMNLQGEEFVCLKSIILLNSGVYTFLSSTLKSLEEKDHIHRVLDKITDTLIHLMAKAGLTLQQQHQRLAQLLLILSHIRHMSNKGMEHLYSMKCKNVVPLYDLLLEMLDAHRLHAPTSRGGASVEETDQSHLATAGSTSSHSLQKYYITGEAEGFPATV
# How it was run: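 Reporter cells (ER-alpha-bla, HEK293 background) are conditioned overnight in stripped-serum medium (2% charcoal-stripped FBS). Compound and 17beta-estradiol exposure runs 18 hr at 37C, 5% CO2.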
# [4] = target: Estrogen receptor (Homo sapiens) (UniProt P03372); assay: qHTS assay to identify small molecule agonists of the estrogen receptor alpha (ER-alpha) signaling pathway using the BG1 cell line (AID 743079); conditions: BG1Luc4E2 cells, ERE-luciferase agonist, 22 h; activation: at 70.3 µM (top of the series) unless noted; further: nearly all actives have a fitted effect of over 20% in size; further: potency means the concentration at half of the fitted maximal effect; on activation: on the % scale 0 is the no-effect control and ±100 the full control effect
# Aromatase (Homo sapiens) = Aromatase (Homo sapiens) (UniProt P11511); assay: qHTS assay to identify aromatase inhibitors (AID 743083); conditions: MCF-7 aro ERE, testosterone-driven ERE luciferase, 24 h; activity, negative = inhibition: at 70.3 µM (top of the series); further: potency means the concentration at half of the fitted maximal effect; nearly all actives have a fitted effect of over 55% in size
# Chain of UniProt P11511 (P11511 whole entry, looked up): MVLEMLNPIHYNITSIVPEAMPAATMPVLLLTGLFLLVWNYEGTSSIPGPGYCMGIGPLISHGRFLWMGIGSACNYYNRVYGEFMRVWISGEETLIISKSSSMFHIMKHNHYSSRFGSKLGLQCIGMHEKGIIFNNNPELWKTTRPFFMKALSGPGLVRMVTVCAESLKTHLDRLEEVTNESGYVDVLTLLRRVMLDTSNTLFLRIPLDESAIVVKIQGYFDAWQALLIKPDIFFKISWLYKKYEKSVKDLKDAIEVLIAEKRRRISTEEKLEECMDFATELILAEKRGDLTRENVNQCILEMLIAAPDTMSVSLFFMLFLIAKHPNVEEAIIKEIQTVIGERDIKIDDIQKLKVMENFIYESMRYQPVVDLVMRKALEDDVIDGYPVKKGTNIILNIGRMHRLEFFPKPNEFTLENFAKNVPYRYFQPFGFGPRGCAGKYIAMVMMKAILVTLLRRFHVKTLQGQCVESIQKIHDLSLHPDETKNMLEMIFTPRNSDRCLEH
# [5] = qHTS assay to identify aromatase inhibitors - cell viability counter screen (AID 743084); conditions: MCF-7 aro ERE viability, CellTiter-Fluor, 24 h; activity change, negative = cytotoxicity: at 70.3 µM (top of the series) unless noted;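 further: cells stimulated with testosterone during compound exposure; potency means the concentration at half of the fitted maximal effect; nearly all actives have a fitted effect of over 55% in size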
# [6] = target: Peroxisome proliferator-activated receptor gamma (Homo sapiens) (UniProt P37231); assay: qHTS assay to identify small molecule agonists of the peroxisome proliferator-activated receptor gamma (PPARg) signaling pathway (AID 743094; active means well fitted activation curve with a large enough effect in the signal ratio in the repeat runs, not every such curve was filed as active; inconclusive means weak or mixed curves, or effect the other way; inactive means no such curve, though single readings can be large or run the other way; the % refers to the signal ratio; further: potency means the concentration at half of the fitted maximal effect; on activation: on the % scale 0 is the no-effect control and ±100 the full control effect); conditions: HEK293H PPARg-UAS-bla, beta-lactamase FRET ratio, 17 h; activation: at 57 µM (top of the series) unless noted
# Chain of UniProt P37231 (P37231 whole entry, looked up): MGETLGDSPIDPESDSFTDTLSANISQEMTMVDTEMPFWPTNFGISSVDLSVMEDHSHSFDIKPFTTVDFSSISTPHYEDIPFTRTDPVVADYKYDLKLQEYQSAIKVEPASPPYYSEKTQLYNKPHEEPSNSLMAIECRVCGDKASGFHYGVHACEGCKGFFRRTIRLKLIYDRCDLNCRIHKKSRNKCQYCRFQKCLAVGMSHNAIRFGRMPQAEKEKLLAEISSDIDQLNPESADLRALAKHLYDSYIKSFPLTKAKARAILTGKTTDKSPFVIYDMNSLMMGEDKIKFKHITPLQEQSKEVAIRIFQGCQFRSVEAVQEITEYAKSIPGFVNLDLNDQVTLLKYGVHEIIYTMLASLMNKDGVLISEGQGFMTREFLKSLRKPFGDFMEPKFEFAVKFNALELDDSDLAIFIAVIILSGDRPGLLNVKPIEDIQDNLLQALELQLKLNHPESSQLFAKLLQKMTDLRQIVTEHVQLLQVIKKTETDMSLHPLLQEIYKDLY
# How it was run: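 GeneBLAzer PPARg UAS-bla HEK293H cells were plated, rested 5 h, then exposed to compounds for 17 h at 37C. Beta-lactamase activity was read by LiveBLAzer B/G FRET substrate fluorescence after 1 h at room temperature.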
# [7] = target: Androgen receptor (Homo sapiens) (UniProt P10275); assay: qHTS assay to identify small molecule agonists of the androgen receptor (AR) signaling pathway (AID 743036; active means well fitted activation curve with a large enough effect in the signal ratio in the repeat runs, with a control signal flat, not every such curve was filed as active; inconclusive means weak or mixed curves, or effect the other way; inactive means no such curve, though single readings can be large or run the other way; the % refers to the signal ratio; further: potency means the concentration at half of the fitted maximal effect); conditions: HEK293 AR-UAS-bla GripTite, beta-lactamase FRET ratio, 16 h; activation: at 62.4 µM (top of the series) unless noted
# How it was run: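 Reporter line: GeneBLAzer AR-UAS-bla-GripTite (HEK293). Steps: plate cells, 4 h rest, add compounds, 16 h at 37C, add LiveBLAzer B/G substrate, 2 h at RT, read fluorescence.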
# [8] = target: Estrogen receptor (Homo sapiens) (UniProt P03372); assay: qHTS assay to identify small molecule agonists of the estrogen receptor alpha (ER-alpha) signaling pathway (AID 743075; calls by dose curve;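 further: HEK293 GripTite cells with ER-alpha and UAS-driven beta-lactamase reporter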; further: potency means the concentration at half of the fitted maximal effect)
# [9] = qHTS assay to identify small molecule antagonists of the estrogen receptor alpha (ER-alpha) signaling pathway using the BG1 cell line - cell viability counter screen (AID 743081); conditions: BG1Luc4E2 viability, CellTiter-Fluor, 22 h; activity change, negative = cytotoxicity: at 70.3 µM (top of the series);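 further: compound given together with 17beta-estradiol as the ER stimulus; nearly all actives have a fitted effect of over 45% in size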; further: potency means the concentration at half of the fitted maximal effect
# [10] = target: Aryl hydrocarbon receptor (Homo sapiens) (UniProt P35869); assay: qHTS assay to identify small molecule that activate the aryl hydrocarbon receptor (AhR) signaling pathway (AID 743085);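 further: HG2L7.5c1 human HepG2 liver cells with stably integrated DRE-driven firefly reporter; on the % scale 0 is the no-effect control and ±100 the full control effect; nearly all actives have a fitted effect of over 15% in size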
# Chain of UniProt P35869 (P35869 whole entry, looked up): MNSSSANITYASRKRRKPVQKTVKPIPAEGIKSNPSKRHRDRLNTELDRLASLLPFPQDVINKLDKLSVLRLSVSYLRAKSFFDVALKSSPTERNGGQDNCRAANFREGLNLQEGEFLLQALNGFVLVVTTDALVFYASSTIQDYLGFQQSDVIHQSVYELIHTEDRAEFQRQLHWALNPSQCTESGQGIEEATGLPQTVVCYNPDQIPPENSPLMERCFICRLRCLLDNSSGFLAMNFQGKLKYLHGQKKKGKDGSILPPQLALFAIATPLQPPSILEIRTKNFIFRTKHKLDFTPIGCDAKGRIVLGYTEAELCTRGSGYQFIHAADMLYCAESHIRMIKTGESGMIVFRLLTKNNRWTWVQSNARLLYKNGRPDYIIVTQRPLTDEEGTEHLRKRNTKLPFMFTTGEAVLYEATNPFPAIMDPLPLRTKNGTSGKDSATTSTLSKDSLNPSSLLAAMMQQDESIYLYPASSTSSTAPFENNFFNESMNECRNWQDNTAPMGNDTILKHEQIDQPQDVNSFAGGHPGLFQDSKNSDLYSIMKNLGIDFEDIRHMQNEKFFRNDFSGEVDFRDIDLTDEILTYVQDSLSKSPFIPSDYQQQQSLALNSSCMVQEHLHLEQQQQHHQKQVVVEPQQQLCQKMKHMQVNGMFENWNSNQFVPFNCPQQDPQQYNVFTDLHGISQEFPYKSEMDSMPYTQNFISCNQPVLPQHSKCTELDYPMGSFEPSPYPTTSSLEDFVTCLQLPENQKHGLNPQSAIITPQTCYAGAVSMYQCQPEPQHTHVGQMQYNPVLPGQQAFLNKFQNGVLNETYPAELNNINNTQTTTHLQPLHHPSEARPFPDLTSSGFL
# How it was run: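 Steps: seed HepG2-AhR-luc cells; allow 5 h at 37C; pin-transfer test compound or vehicle; incubate 24 h at 37C; add viability dye (30 min, 37C) and read fluorescence; add luciferase substrate (30 min, RT) and read luminescence.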
# [11] = qHTS assay to identify small molecule antagonists of the androgen receptor (AR) signaling pathway using the MDA cell line - cell viability counter screen (AID 743041; further: potency means the concentration at half of the fitted maximal effect; nearly all actives have a fitted effect of over 45% in size); conditions: MDA-kb2 viability, CellTiter-Fluor, 16 h, cells co-treated with R1881 androgen agonist; viability change, negative = cytotoxic: at 70.3 µM (top of the series) unless noted
# How it was run: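 Same-well cytotoxicity was assessed by CellTiter-Fluor in MDA-kb2 AR-luc cells after 16 h of compound treatment under R1881 agonism.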
# [12] = target: Androgen receptor (Homo sapiens) (UniProt P10275); assay: qHTS assay to identify small molecule antagonists of the androgen receptor (AR) signaling pathway using the MDA cell line (AID 743042; further: potency means the concentration at half of the fitted maximal effect; nearly all actives have a fitted effect of over 55% in size)
# How it was run: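 MDA-kb2 breast carcinoma cells carrying MMTV-luciferase (AR/GR responsive) were co-treated with compounds and the agonist R1881 for 16 h at 37C. Inhibition read as ONE-Glo luminescence; CellTiter-Fluor fluorescence measured in parallel for cytotoxicity.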
# [13] = qHTS assay to identify small molecule antagonists of the thyroid receptor (TR) signaling pathway - cell viability counter screen (AID 743064); conditions: GH3.TRE-Luc viability, CellTiter-Fluor, 24 h; activity change, negative = cytotoxic: at 70.3 µM (top of the series) unless noted; further: potency means the concentration at half of the fitted maximal effect; nearly all actives have a fitted effect of over 50% in size
# How it was run: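 Plate GH3.TRE-Luc cells; incubate 4 h at 37 °C; add compound, then T3 to 1 nM final; incubate 23.5 h; add CellTiter-Fluor; incubate 30 min at 37 °C, 5% CO2; read fluorescence.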
# [14] = qHTS assay to identify small molecule antagonists of the estrogen receptor alpha (ER-alpha) signaling pathway - cell viability counter screen (AID 743074; calls by dose curve;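 further: HEK293 cells carrying ER-alpha-UAS-bla reporter stimulated with 17beta-estradiol; potency means the concentration at half of the fitted maximal effect; nearly all actives have a fitted effect of over 45% in size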)
# [15] = qHTS assay to identify small molecule antagonists of the estrogen receptor alpha (ER-alpha) signaling pathway using the BG1 cell line (AID 743080; calls by dose curve;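 further: BG1 cells stimulated with 17beta-estradiol alongside compound; potency means the concentration at half of the fitted maximal effect; nearly all actives have a fitted effect of over 25% in size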); conditions: BG1Luc4E2 ERE-luciferase antagonist mode, luminescence; activity change, negative = inhibition: at 70.3 µM (top of the series) unless noted
# How it was run: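 Seeding, 24 h rest, compound transfer from DMSO, 17beta-estradiol addition, 21.5 h incubation, CellTiter-Fluor (30 min, 37 C), then ONE-Glo (30 min, room temperature): this sequence was run on BG1-Luc-4E2 reporter cells.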
# Tags describe the fitted curve by direction and shape or compound fluorescence and quenching.
smiles,measurement,setting,value
Cl/C=C\C[N+]12CN3CN(CN(C3)C1)C2,"activity change, negative = inhibition",[1],inconclusive: 22.5%
same,Potency,[2],"inconclusive: 68.6 µM [inhibitor, single point]"
same,Potency,[3],inactive
same,Potency,[4],inactive
same,Potency,Aromatase (Homo sapiens),"inconclusive: 68.6 µM [inhibitor, single point]"
same,Potency,[5],"inconclusive: 54.5 µM [cytotoxic, partial curve]"
same,activation,[6],inconclusive: -2.16%
Brc1ccccc1,Potency,[1],inactive
same,Potency,[7],inactive
same,Potency,[6],inactive
CC(COc1ccc(Oc2ccccc2)cc1)Oc1ccccn1 (configuration not stated),Potency,[1],inconclusive: 15.5 µM
same,Potency,[2],inactive
S=C=NCc1ccccc1,Potency,[1],"inconclusive: 62.3 µM [falling, single point]"
same,activation,[6],inconclusive: 9.23% [at 78.9 µM]
O=C(O)c1nn(Cc2ccc(Cl)cc2Cl)c2ccccc12,Potency,[7],inconclusive: 24.4 µM
same,activation,[7],inconclusive: -36.8%
same,Potency,[3],inactive and inconclusive: 48.6 µM [fluorescent]
same,Potency,[8],active: 0.0952 µM [inconclusive]
same,Potency,[4],active: 6.68 µM
same,Potency,[9],inactive
same,Potency,[5],"inconclusive: 54.1 µM [rising, partial curve]"
same,Potency,[10],inactive
same,Potency,[6],"inconclusive: 19.4 µM [fluorescent, partial curve, poor fit]"
same,activation,[6],inconclusive: -1.77%
Oc1c(Cl)c(Cl)cc(Cl)c1Cl,Potency,[7],"inconclusive: 2.68 µM [rising, full curve, poor fit]"
same,Potency,[11],"inconclusive: 74.8 µM [cytotoxic, single point]"
same,Potency,[12],"inconclusive: 74.8 µM [inhibitor, single point]"
same,Potency,[13],"inconclusive: 74.8 µM [cytotoxic, single point]"
same,Potency,[2],active: 23.7 µM
same,Potency,[3],active: 15.1 µM [inconclusive]
same,Potency,[14],"inconclusive: 3.78 µM [cytotoxic, full curve, poor fit]"
same,Potency,[8],inactive
same,Potency,[4],"inconclusive: 59.5 µM [inhibitor, partial curve]"
same,Potency,[15],active: 74.8 µM
same,Potency,[9],"inconclusive: 66.7 µM [cytotoxic, partial curve, poor fit]"
same,Potency,Aromatase (Homo sapiens),"inconclusive: 84 µM [inhibitor, single point]"
same,activation,[6],inconclusive: 6.52% [at 78.9 µM]
